Sequences and labels used below:
B1: PhoQ; a variant is named by its letters at X, in order, P23837 (parent)
chain: MKKLLRLFFPLSLRVRFLLATAAVVLVLSLAYGMVALIGYSVSFDKTTFRLLRGESNLFYTLAKWENNKLHVELPENIDKQSPTMTLIYDENGQLLWAQRDVPWLMKMIQPDWLKSNGFHEIEADVNDTSLLLSGDHSIQQQLQEVREDDDDAEMTHSVAVNVYPATSRMPKLTIVVVDTIPVELKSSYMVWSWFIYVLSANLLLVIPLLWVAAWWSLRPIEALAKEVRELEEHNRELLNPATTRELTSLVRNLNRLLKSERERYDKYRTTLTDLTHSLKTPLXXLQXXLRSLRSEKMSVSDAEPVMLEQISRISQQIGYYLHRASMRGGTLLSRELHPVAPLLDNLTSALNKVYQRKGVNISLDISPEISFVGEQNDFVEVMGNVLDNACKYCLEFVEISARQTDEHLYIVVEDDGPGIPLSKREVIFDRGQRVDTLRPGQGVGLAVAREITEQYEGKIVAGESMLGGARMEVIFGRQHSAPKDE

Some of the results follow.

195 variants from a collection of fitness landscapes (doi:10.1126/science.1257360) can be followed below.

Variants of B1 are the subject of the experiment. In words: enrichment ratio after two sorts for PhoP signalling (ratio (wild type AVST 3.29)); higher = more functional. The note with it: with PhoP (E. coli).
In the case of PVVA, the enrichment ratio is at most 0.25.
As to MNKA, the enrichment ratio was at most 0.25.
As for FIES, the figure is at most 0.25.
Regarding WAPP, the enrichment ratio was at most 0.25.
The same measure for FEEV: at most 0.25.
As for GWAV, the figure is at most 0.25.
The same measure for DWRM: at most 0.25.
With HHAH, the enrichment ratio was at most 0.25.
Regarding DASL, the enrichment ratio was at most 0.25.
The same measure for LAMT: at most 0.25; for KRMW: at most 0.25; for ARKM: at most 0.25.
As to VSSR, the enrichment ratio is at most 0.25.
As for ESQH, the enrichment ratio is at most 0.25.
Regarding DTNQ, the enrichment ratio is at most 0.25.
The same measure for VLLN: at most 0.25.
As for HSII, the figure is 7.5.
The same measure for VFES: at most 0.25.
On to PYVC, for which the enrichment ratio was at most 0.25.
The same measure for HNFV: at most 0.25; for YAMV: 1.25; for MQIQ: at most 0.25.
As for WFMY, the figure is at most 0.25; as for GSHW, at most 0.25.
For SWTA, the enrichment ratio is at most 0.25.
As for DHQL, the figure is at most 0.25; as for LSCT, at most 0.25; as for YWVH, at most 0.25.
As for IKMN, the figure is at most 0.25; as for GIND, at most 0.25.
As for TYPN, the figure is at most 0.25; as for FDWL, at most 0.25; as for NMQI, at most 0.25.
With TQPD, the enrichment ratio is at most 0.25.
Regarding RQES, the enrichment ratio is at most 0.25.
As for DSMS, the figure is at most 0.25.
The same measure for HYEG: at most 0.25; for IPMI: at most 0.25.
IYNA: the enrichment ratio is at most 0.25.
As for ADQV, the enrichment ratio is 0.355.
The same measure for IENH: at most 0.25.
The same measure for NNYK: at most 0.25; for RNRY: at most 0.25.
As for FRWD, the figure is at most 0.25; as for GWSL, at most 0.25.
In the case of PWKG, the enrichment ratio is at most 0.25.
As for ARLD, the figure is at most 0.25; as for PDVL, at most 0.25; as for NNGH, at most 0.25.
Take IFCI: the enrichment ratio is at most 0.25.
The same measure for NEAH: at most 0.25.
The same measure for EAFC: at most 0.25; for CFYG: at most 0.25.
The same measure for KTLK: at most 0.25; for ACSE: at most 0.25; for GMQF: at most 0.25.
Turning to SSHH, the enrichment ratio was at most 0.25.
The same measure for WEGT: at most 0.25.
The same measure for PHSY: at most 0.25; for THQA: at most 0.25; for NDKF: at most 0.25.
As for FEWG, the figure is at most 0.25; as for IYIG, at most 0.25.
As for EIRA, the enrichment ratio was at most 0.25.
The same measure for WFIE: at most 0.25; for YFKG: at most 0.25.
As for FMIG, the figure is at most 0.25; as for TTFR, at most 0.25; as for GFWF, at most 0.25.
The same measure for VASC: at most 0.25.
Take FVRL: the enrichment ratio was at most 0.25.
The same measure for VMLL: at most 0.25; for TMRK: at most 0.25.
The same measure for WPEV: at most 0.25; for RLAT: at most 0.25.
As for HHIP, the figure is at most 0.25.
In the case of LCQL, the enrichment ratio was at most 0.25.
MGTV: the enrichment ratio was 7.44.
The same measure for SHVC: at most 0.25; for GVPF: at most 0.25.
The same measure for HDPW: at most 0.25; for AKFT: at most 0.25; for DMYN: at most 0.25.
The same measure for FWWI: at most 0.25; for QKLH: at most 0.25.
With DIES, the enrichment ratio was at most 0.25.
The same measure for WRTI: at most 0.25; for GRIK: at most 0.25; for YCWV: at most 0.25.
As for LDEG, the figure is at most 0.25.
The same measure for VGQR: at most 0.25; for LVFK: at most 0.25; for QGPM: at most 0.25.
With MLYG, the enrichment ratio was at most 0.25.
With GEPA, the enrichment ratio is at most 0.25.
The same measure for YAEG: at most 0.25; for RTEA: at most 0.25.
On to FRSW, for which the enrichment ratio was at most 0.25.
The same measure for NQDS: at most 0.25; for AGLE: 3.91.
For QHVL, the enrichment ratio is at most 0.25.
The same measure for PGNI: at most 0.25.
As for FQPM, the figure is at most 0.25.
As for AVLV, the figure is 5.05; as for TNFA, at most 0.25; as for QTAM, at most 0.25.
Turning to RHAI, the enrichment ratio was at most 0.25.
For the variant KTND, the enrichment ratio was at most 0.25.
As for ERRP, the figure is at most 0.25.
The same measure for KVIT: at most 0.25; for EQPS: at most 0.25.
For SINE, the enrichment ratio is at most 0.25.
As for TGWI, the figure is 26.1; as for RQFG, at most 0.25; as for TVPI, at most 0.25.
As for NMVL, the figure is at most 0.25.
MHTG: the enrichment ratio is at most 0.25.
As for YEYC, the figure is at most 0.25; as for TPHF, at most 0.25.
The same measure for MFVP: at most 0.25; for KVCK: at most 0.25.
The same measure for NQHW: at most 0.25.
For MFPQ, the enrichment ratio was at most 0.25.
As for IYFH, the figure is at most 0.25.
The same measure for RVHF: at most 0.25; for MNAR: at most 0.25.
The same measure for TPQP: at most 0.25; for TKSD: at most 0.25.
For RVTI, the enrichment ratio was at most 0.25.
The same measure for WLGW: at most 0.25.
The same measure for FWPN: at most 0.25.
As to IAMV, the enrichment ratio amounted to 2.82.
As for TWSL, the figure is at most 0.25.
The same measure for ECWP: at most 0.25; for WAFR: at most 0.25; for SAVC: at most 0.25.
As for SYPP, the figure is at most 0.25; as for AFVV, at most 0.25.
As for TWAH, the enrichment ratio was at most 0.25.
As for LENN, the figure is at most 0.25.
As for HPCV, the figure is at most 0.25.
As for MDYG, the figure is at most 0.25.
On to QMWG, for which the enrichment ratio was at most 0.25.
In the case of APSR, the enrichment ratio was at most 0.25.
As for MYTF, the figure is at most 0.25; as for DCFN, at most 0.25.
LHCI: the enrichment ratio is at most 0.25.
The same measure for GLFL: at most 0.25; for ELPE: at most 0.25.
As for MGKI, the figure is at most 0.25.
The same measure for VCDM: at most 0.25; for LEQD: at most 0.25.
Take PTRV: the enrichment ratio was at most 0.25.
For IGAE, the enrichment ratio was at most 0.25.
As for WEAR, the figure is at most 0.25.
Regarding KYSP, the enrichment ratio was at most 0.25.
As for VTII, the figure is at most 0.25.
The same measure for IHCN: at most 0.25.
As for LPFH, the figure is at most 0.25; as for ILGY, at most 0.25; as for DIEV, at most 0.25.
YRTS: the enrichment ratio is at most 0.25.
On to CFTF, for which the enrichment ratio was at most 0.25.
Turning to WVPC, the enrichment ratio was at most 0.25.
As for VKWG, the figure is at most 0.25; as for AQRI, at most 0.25; as for PQKC, at most 0.25.
In the case of DNSD, the enrichment ratio was at most 0.25.
As for THDN, the figure is at most 0.25.
The same measure for TENI: 10.2.
As for FHRH, the figure is at most 0.25.
Regarding WFKR, the enrichment ratio was at most 0.25.
The same measure for PSEA: at most 0.25; for MTWK: at most 0.25.
As for ISPI, the figure is at most 0.25; as for HIYR, at most 0.25; as for KDHL, at most 0.25.
The same measure for PYRP: at most 0.25.
With IQPG, the enrichment ratio is at most 0.25.
As for SLYG, the figure is at most 0.25; as for DNCK, at most 0.25.
In the case of IITI, the enrichment ratio was at most 0.25.
As for FMNG, the figure is at most 0.25; as for AGLT, 7.3.
As for VSIW, the figure is at most 0.25.
The same measure for HYGA: at most 0.25; for VFGL: at most 0.25.
MNID: the enrichment ratio is at most 0.25.
For FDKC, the enrichment ratio is at most 0.25.
The same measure for HHRN: at most 0.25; for LYPN: at most 0.25.
Regarding EPIK, the enrichment ratio was at most 0.25.
The same measure for LSEY: at most 0.25.
For AFIS, the enrichment ratio is at most 0.25.
As to VDKN, the enrichment ratio was at most 0.25.
